In PubChem BioAssay AID485297 (National Center for Advancing Translational Sciences (NCATS), 2010):
Out of some 320,000 compounds screened, about 9,100 (2.8%) were called active. Inconclusive means that the source gave no clear call. Such entries were picked first, then a sample of the others. Calls follow the shape of the dose curve; as a rule, active = well fitted activation curve with a large enough effect; inconclusive = small, poorly fitted or top-dose-only effect; inactive = no such curve, though single readings can be large or run the other way. Potencies beside an inconclusive call are fits to weak or partial responses and may not hold up.

Experiment: qHTS Assay for Rab9 Promoter Activators; also: nearly all actives have a fitted effect of over 60% in size; as to activation, negative = inhibition: % of control where 0% means no effect
Details: Huh7 Rab9 promoter-luciferase reporter, luminescence, 24 h; series mostly up to 9.22 µM; activation, negative = inhibition: at the top concentration
Summary of the method: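 Cell-based reporter: Huh7 stable for Rab9 promoter-driven luciferase, plated in reduced-serum medium with 10% FBS at 1500 cells/well, compound-treated 24 h at 37 °C, luminescence read after 10 min reagent.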
Potency is read from the fitted curve at half-maximal effect; tags tell the direction and shape of the fitted curve.

activation, negative = inhibition, inactive:
Cc1ccc(S(=O)(=O)NCCC(=O)Nc2ccc(S(=O)(=O)NC(C)C)cc2)cc1 -1.74%
Cc1nc(N2CCOCC2)[nH]c(=O)c1C -1.46%
COc1ccccc1CN(Cc1nc2ccccc2c(=O)[nH]1)S(=O)(=O)c1ccc(C)cc1 -2.19%
CCOC(=O)C1=C(C(F)(F)F)Nc2ncnn2C1c1cc(OC)c(OC)cc1OC (stereo not drawn) 0.61%
CCOC(=O)c1sc(NS(=O)(=O)c2ccccc2)nc1C -3.74%
CCn1cc(C(=O)OCC(=O)c2cc(C)n(-c3ccccc3F)c2C)c(=O)c2ccc(C)nc21 -6.08%
COCCCn1c(SC(C)C(=O)Nc2c(C)n(C)n(-c3ccccc3)c2=O)n[nH]c1=O (stereo not drawn) 0.433%
Cc1ccc(C(=O)COc2ccccc2C(=O)Nc2ccccc2)cc1 0.153%
COc1cc(/C=C2\C(=O)N(c3ccc(NC(C)=O)cc3)N=C2c2ccccc2)ccc1O -5.94%
CCOc1ccc(N(CC(=O)NCCSCc2ccccc2Cl)S(C)(=O)=O)cc1 0.65%
CC(=O)c1ccc(N2CCN(CC(=O)NC(=O)NCc3ccccc3)CC2)cc1 0.375%
CC(=O)c1cccc(NC(=O)c2nccnc2C(=O)O)c1 -5.48%
Cc1cc(NC(=O)CSc2n[nH]c(-c3ccc(Cl)cc3Cl)n2)no1 0.595%
Cc1cccc(Nc2nnc(SCC(=O)NCc3cccs3)s2)c1C -2.95%
COc1ccc(CNC(=O)C(c2ccco2)N(C(=O)Cc2cccs2)c2cccnc2)cc1 (stereo not drawn) 1.41%
O=C(NC1CCCCC1)c1cccc(S(=O)(=O)N2CCCCC2)c1 2.26%
CCn1c(SCC(=O)Nc2nncs2)nnc1C(C)NC(=O)c1ccccc1Br (stereo not drawn) 0.964%
CCNC(=O)c1ccccc1SCC(=O)Nc1ccc(F)cc1 1.42%
Cc1csc(NC(=O)Cc2c[nH]c3ccccc23)n1 28.5%
O=C(Nc1cnn(Cc2ccc(F)cc2)c1)C(c1ccccc1)c1ccccc1 -1.39%
COc1ccc(C2=NOC(Cn3nc(-c4ccccc4)cc3C(=O)O)C2)cc1 (stereo not drawn) -5.46%
CCN1CCc2[nH]c3ccccc3c2C1 0.546%
NS(=O)(=O)c1ccc(CCNC(=O)c2ccncc2)cc1 -6.82%
CC(=O)C1CCC2C3CCC4=CC(=O)CC[C@]4(C)[C@@]3(F)C(O)C[C@]12C (stereo partly drawn) -0.361% [at 1.84 µM]
CCCOc1cccc(C2/C(=C(/O)c3ccc4c(c3)CC(C)O4)C(=O)C(=O)N2CCN2CCOCC2)c1 (stereo not drawn) -5.68%
O=C(c1ccco1)N1CCN(Cc2nc(Cc3ccccc3)no2)CC1 -3.67%
CCN1C(=O)NC2=C(C(=O)c3ccccc32)C1c1ccccc1F (stereo not drawn) 12.9%
Cc1cccc(NC(=O)CC2C(=O)NCCN2C(=O)Nc2ccc(Cl)cc2)c1 (stereo not drawn) -3.8%

Potency, active:
CC1CCCN(C(=O)CN2C(=O)c3ccccc3S2(=O)=O)C1 (stereo not drawn) 2.82 µM
CC(C)c1ccc(C(=O)NNC(=O)C2C3CCC(C3)C2C(=O)O)cc1 (stereo not drawn) 1.26 µM
Cc1ccc(-c2noc(CN3CCOCC3)n2)cc1 2.82 µM
COc1cc(/C=C/c2cc(C(=O)O)c3ccccc3n2)ccc1OC(F)F 3.16 µM
O=C(OCc1ccccc1F)c1ccc2c(c1)-c1ccccc1C2=O 2.24 µM
Clc1ccc2nc(N3CCCCC3)[nH]c2c1 1.41 µM
Cn1c(C(=O)NCc2ccccn2)cc2c(=O)n3ccccc3nc21 2 µM
Cc1ccc(/C(N)=N/OC(=O)c2cccs2)cc1 4.47 µM
O=C(Nc1ccc2oc(-c3ccccc3)nc2c1)c1ccccc1F 2.51 µM
O=C(c1ccco1)N1CCN(c2ccc(N3CCCCC3)nn2)CC1 3.16 µM
C=CCN1C(=O)S/C(=C\c2ccc(N3CCOCC3)cc2C)C1=O 3.55 µM

Potency, inconclusive:
COc1ccc(C2=NN(C(=O)CN3CCOCC3)C(c3nc4ccccc4[nH]3)C2)cc1 (stereo not drawn) 3.16 µM [activator, partial curve]
O=c1c(Cl)c(NCCCO)cnn1-c1nc2ccccc2[nH]1 1.26 µM [activator, partial curve]
O=C(c1cc(COc2cccc(C(F)(F)F)c2)on1)N1C[C@@H]2CCC[C@H]1C2 2 µM [activator, partial curve]
Cc1ccn2c(c1)nc(=O)c1cc(S(=O)(=O)N3CCCCC3)ccc12 1 µM [activator, single point]
C/C(=N/NC(=O)c1cc2ccccc2cc1O)C1C(=O)c2ccccc2C1=O 3.98 µM [activator, single point]
O=C(Nc1nccs1)c1cccc(NC(=O)C(F)(F)F)c1 5.62 µM [activator, single point]
CCOC(=O)C1CCN(C2CCN(C(=O)c3oc4c(C)c(C)ccc4c3C)CC2)CC1 3.16 µM [activator, partial curve]
CCCS(=O)(=O)NCc1cn2c(C)csc2n1 2.82 µM [activator, partial curve]
COc1ccc2cc3cc(C(=O)NCc4cccnc4)oc3nc2c1 5.62 µM [activator, single point]
O=C(NC1CCN(S(=O)(=O)c2ccc(F)cc2)CC1)c1cccnc1 1.26 µM [activator, single point]
O=C(O)c1cccc(NC(=S)NCc2ccccc2)c1 0.631 µM [activator, partial curve]
Oc1ccc(C=Nc2ccccc2-c2nc3ccccc3[nH]2)c(O)c1 3.16 µM [activator, partial curve]
O=C(NCc1ccccc1)C(=O)NCC1OCCCN1S(=O)(=O)c1cccs1 (stereo not drawn) 0.891 µM [activator, single point]
CCOC(=O)c1ccc(NC(=O)c2ccc3c(c2)OCO3)cc1 4.47 µM [activator, single point]
Nc1nc(-c2ccc(Br)cc2)cs1 4.47 µM [activator, partial curve]
CC1(C)CC(NC(=O)C2CCC(=O)N(Cc3ccccc3F)C2)CC(C)(C)C1 (stereo not drawn) 2.82 µM [activator, partial curve]
CCCn1nnc(NC(=O)c2cccc(OCC)c2)n1 3.55 µM [activator, single point]
COC(=O)c1ccc(NC(=O)Nc2ccc3c(c2)nc(C)n3C)cc1 2.82 µM [activator, partial curve]
O=C(O)/C=C/c1cnc2ccccc2c1 3.55 µM [activator, single point]
CCOC(=O)c1nc(NCCc2ccccc2)sc1C 4.47 µM [activator, partial curve]
CC1Cc2ccccc2N1C(=O)CSc1nc2ccccc2o1 (stereo not drawn) 4.47 µM [activator, single point]
CCC(=O)Oc1ccc(-c2cnc3ccccc3n2)cc1 4.47 µM [activator, single point]
COc1ccc2ccccc2c1/C=N/Nc1ccc(Cl)c(C(=O)O)c1 1.78 µM [activator, partial curve]
O=C(Nc1nnc(Cc2ccccc2)s1)c1ccccc1 3.55 µM [activator, single point]
N/C(=N\NC(=O)Nc1ccc(Cl)cc1)c1ccccn1 4.47 µM [activator, single point]
CCc1ccc(C(=O)/C=C/Nc2ccc(S(=O)(=O)Nc3onc(C)c3C)cc2)cc1 5.62 µM [activator, single point]
O=C(c1cc2ccccc2oc1=O)N(Cc1ccco1)C1CCS(=O)(=O)C1 (stereo not drawn) 3.55 µM [activator, partial curve]
O=C(Nc1ccccc1)c1ccco1 2.24 µM [activator, partial curve]
CCN1CCN(c2ccc(NC(=O)c3ccc(Br)o3)cc2)CC1 2.82 µM [activator, partial curve]
CSc1nnc(NC(=O)C2CCCCC2)s1 1.58 µM [activator, partial curve]
O=C(Nc1ccccc1)Nc1scc2c1c(=O)oc1ccccc12 1.26 µM [activator, partial curve]
O=C1/C(=C/c2ccc(Br)cc2)Oc2cc(O)ccc21 4.47 µM [activator, partial curve]
CCOc1ccc(-c2cc(C(=O)N/N=C/c3cccnc3)c3ccccc3n2)cc1 3.16 µM [activator, partial curve]
O=[N+]([O-])c1ccc(N=Nc2c(O)[nH]c3ccc(F)cc23)cc1 3.98 µM [activator, partial curve]
CCOc1ccc(NC(=O)CC2C(=O)N(c3ccccc3)C(=O)N2Cc2ccco2)cc1 (stereo not drawn) 6.31 µM [activator, single point]
COc1ccc(NC(=O)Nc2ccc3c(c2)CCC3)cc1 3.55 µM [activator, single point]
Cc1sc2nc(SCC(=O)N3CCOCC3)[nH]c(=O)c2c1-c1ccccc1 5.62 µM [activator, single point]
O=C(Nc1cccc(-c2nc3ncccc3o2)c1)c1cc2ccccc2o1 3.98 µM [activator, single point]
O=C1NC(=O)/C(=C\c2ccc(Cl)nc2)S1 2 µM [activator, partial curve]
